Here are results for 4 molecules from patent US11434289B2, “Anti-GPR20 antibody and anti-GPR20 antibody-drug conjugate” (DAIICHI SANKYO COMPANY, LIMITED, priority 2017, dated 2022).

One assay deals with T1, human GPR20 (Homo sapiens, UniProt Q99678).
T1 construct: expressed in transfected cells; host or cells: 293T cells, transient, Lipofectamine 2000
T1 sequence (Q99678 1-358): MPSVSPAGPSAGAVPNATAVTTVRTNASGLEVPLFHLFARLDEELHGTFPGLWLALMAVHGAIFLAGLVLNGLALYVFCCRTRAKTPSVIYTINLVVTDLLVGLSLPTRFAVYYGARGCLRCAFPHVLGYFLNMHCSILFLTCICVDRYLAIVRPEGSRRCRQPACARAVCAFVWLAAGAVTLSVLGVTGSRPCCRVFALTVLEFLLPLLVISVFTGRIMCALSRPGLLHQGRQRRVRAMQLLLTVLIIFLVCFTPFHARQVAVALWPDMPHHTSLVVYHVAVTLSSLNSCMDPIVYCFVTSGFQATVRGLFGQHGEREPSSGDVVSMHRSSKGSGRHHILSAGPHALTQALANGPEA
Nature of the assay: Internalization activity of humanized anti-GPR20 antibodies with Hum-ZAP in HEK293 cells stably expressing GPR20-EGFP. Particulars: antibody 0.015 to 1.27 μg/mL, Hum-ZAP 1 μg/mL, 4 days. It is filed as cell-based.

A further assay deals with GIST-T1/GPR20 cells. Nature of the assay: Antitumor effect in subcutaneously GIST-T1/GPR20 cell-transplanted nude mouse models. Format: in vivo, BALB/c nude mice. The note with it: 1 mg/kg intravenously on Day 17; FIG. 31.

B1: h046-H8/L1: humanized h046-H8 type heavy chain and humanized h046-L1 type light chain (antibody)
heavy: QVQLQQSGAELAKPGSSVKISCKASGYTFTSYYISWIKQTTGQGLKYIGFINPGSGHTNYNEKFKGKATLTVDKSSSTANMQLSSLTPDDSAIYYCARGAGGFLRIITKFDYWGQGVMVTVSSASTKGPSVFPLAPSSKSTSGGTAALGCLVKDYFPEPVTVSWNSGALTSGVHTFPAVLQSSGLYSLSSVVTVPSSSLGTQTYICNVNHKPSNTKVDKRV[letters of human IgG1 Fc omitted]
light: DIQMTQSPSSLSASVGDRVTITCRASKSVSTYIHWYQQKPGKAPKLLIYSASNLESGVPSRFSGSGSGTDFTLTISSLQPEDFATYYCQQINELPYTFGQGTKVEIKRTVAAPSVFIFPPSDEQLKSGTASVVCLLNNFYPREAKVQWKVDNALQSGNSQESVTEQDSKDSTYSLSSTLTLSKADYEKHKVYACEVTHQGLSSPVTKSFNRGEC
Take B1: the “cell proliferation-suppressive effect by antibody internalization” value with human GPR20 is listed as “exhibited a cell proliferation-suppressive effect by antibody internalization”.

B2: h046-H10/L1: humanized h046-H10 type heavy chain and humanized h046-L1 type light chain (antibody)
heavy: QVQLQQSGAELAKPGSSVKVSCKASGYTFTSYYISWIKQTTGQGLKYIGFINPGSGHTNYNEKFKGKATLTVDKSSSTANMQLSSLTPDDSAIYYCARGAGGFLRIITKFDYWGQGVMVTVSSASTKGPSVFPLAPSSKSTSGGTAALGCLVKDYFPEPVTVSWNSGALTSGVHTFPAVLQSSGLYSLSSVVTVPSSSLGTQTYICNVNHKPSNTKVDKRV[letters of human IgG1 Fc omitted]
light: DIQMTQSPSSLSASVGDRVTITCRASKSVSTYIHWYQQKPGKAPKLLIYSASNLESGVPSRFSGSGSGTDFTLTISSLQPEDFATYYCQQINELPYTFGQGTKVEIKRTVAAPSVFIFPPSDEQLKSGTASVVCLLNNFYPREAKVQWKVDNALQSGNSQESVTEQDSKDSTYSLSSTLTLSKADYEKHKVYACEVTHQGLSSPVTKSFNRGEC
For the molecule B2, in the assay with human GPR20, the “cell proliferation-suppressive effect by antibody internalization” value is given as “exhibited a cell proliferation-suppressive effect by antibody internalization”.

B3: antibody-drug conjugate (11): antibody-drug conjugate produced from h046-H10/L1; n 7.9 by common procedure F (conjugate)
heavy: QVQLQQSGAELAKPGSSVKVSCKASGYTFTSYYISWIKQTTGQGLKYIGFINPGSGHTNYNEKFKGKATLTVDKSSSTANMQLSSLTPDDSAIYYCARGAGGFLRIITKFDYWGQGVMVTVSSASTKGPSVFPLAPSSKSTSGGTAALGCLVKDYFPEPVTVSWNSGALTSGVHTFPAVLQSSGLYSLSSVVTVPSSSLGTQTYICNVNHKPSNTKVDKRV[letters of human IgG1 Fc omitted]
light: DIQMTQSPSSLSASVGDRVTITCRASKSVSTYIHWYQQKPGKAPKLLIYSASNLESGVPSRFSGSGSGTDFTLTISSLQPEDFATYYCQQINELPYTFGQGTKVEIKRTVAAPSVFIFPPSDEQLKSGTASVVCLLNNFYPREAKVQWKVDNALQSGNSQESVTEQDSKDSTYSLSSTLTLSKADYEKHKVYACEVTHQGLSSPVTKSFNRGEC
Regarding B3, the tumor volume result in the assay on GIST-T1/GPR20 cells is reported as “remarkably decreased tumor volume”.

B4: antibody-drug conjugate (10): antibody-drug conjugate produced from h046-H8/L1; n 7.9 by common procedure F (conjugate)
heavy: QVQLQQSGAELAKPGSSVKISCKASGYTFTSYYISWIKQTTGQGLKYIGFINPGSGHTNYNEKFKGKATLTVDKSSSTANMQLSSLTPDDSAIYYCARGAGGFLRIITKFDYWGQGVMVTVSSASTKGPSVFPLAPSSKSTSGGTAALGCLVKDYFPEPVTVSWNSGALTSGVHTFPAVLQSSGLYSLSSVVTVPSSSLGTQTYICNVNHKPSNTKVDKRV[letters of human IgG1 Fc omitted]
light: DIQMTQSPSSLSASVGDRVTITCRASKSVSTYIHWYQQKPGKAPKLLIYSASNLESGVPSRFSGSGSGTDFTLTISSLQPEDFATYYCQQINELPYTFGQGTKVEIKRTVAAPSVFIFPPSDEQLKSGTASVVCLLNNFYPREAKVQWKVDNALQSGNSQESVTEQDSKDSTYSLSSTLTLSKADYEKHKVYACEVTHQGLSSPVTKSFNRGEC
As for B4, in the assay with GIST-T1/GPR20 cells, the tumor volume entry was “remarkably decreased tumor volume”.
